According to the GPR68 mutational scans of Howard et al. (2025):
Scores with a large standard error are left out. Two further conditions of the source, in which the scores hardly spread, are not listed. Read del as a deletion of the residues named and ins as an insertion between two positions. For some of these results: The data file names ogerin without a concentration.

B1: GPR68, Q15743 (parent)
chain: MGNITADNSSMSCTIDHTIHQTLAPVVYVTVLVVGFPANCLSLYFGYLQIKARNELGVYLCNLTVADLFYICSLPFWLQYVLQHDNWSHGDLSCQVCGILLYENIYISVGFLCCISVDRYLAVAHPFRFHQFRTLKAAVGVSVVIWAKELLTSIYFLMHEEVIEDENQHRVCFEHYPIQAWQRAINYYRFLVGFLFPICLLLASYQGILRAVRRSHGTQKSRKDQIQRLVLSTVVIFLACFLPYHVLLLVRSVWEASCDFAKGVFNAYHFSLLLTSFNCVADPVLYCFVSETTHRDLARLRGACLAFLTCSRTGRAREAYPLGAPEASGKSGAQGEEPELLTKLHPAFQTPNSPGSGGFPTGRLA

Tests used:
[1] = variants of: B1; assay: cAMP reporter score (Enrich2 score, wild type = 0); higher = more signal; HEK293T, FACS bins
[2] = variants of: B1; assay: surface expression score (Enrich2 score, wild type = 0); higher = more signal; HEK293T, FACS bins

Variant | cAMP reporter score ([1]; pH 5.5) | cAMP reporter score ([1]; pH 6) | cAMP reporter score ([1]; pH 6, modulator: ogerin) | cAMP reporter score ([1]; pH 6.5, modulator: ogerin) | surface expression score [2]
MGNITADNSSMSCTIDHTIHQTLAPVVYVTVLVVGFPANCLSLYFGYLQIKARNELGVYLCNLTVADLFYICSLPFWLQYVLQHDNWSHGDLSCQVCGILLYENIYISVGFLCCISVDRYLAVAHPFRFHQFRTLKAAVGVSVVIWAKELLTSIYFLMHEEVIEDENQHRVCFEHYPIQAWQRAINYYRFLVGFLFPICLLLASYQGILRAVRRSHGTQKSRKDQIQRLVLSTVVIFLACFLPYHRLLLVRSVWEASCDFAKGVFNAYHFSLLLTSFNCVADPVLYCFVSETTHRDLARLRGACLAFLTCSRTGRAREAYPLGAPEASGKSGAQGEEPELLTKLHPAFQTPNSPGSGGFPTGRLA [V246R] | -0.768 | -0.188 | -0.841 | -0.871 | -2.12
MGNITADNSSMSCTIDHTIHQTLAPVVYVTVLVVGFPANCLSLYFGYLQIKARNELGVYLCNLTVADLFYICSLPFWLQYVLQHDNWSHGDLSCQVCGILLYENIYISVGFLCCISVDRYLAVAHPFRFHQFRTLKAAVGVSVVIWAKELLTSIYFLMHEEVIEDENQHRVCFEHYPIQAWQRAINYYRFLVGFLFPICLLLASYQGILRAVRRSHGTQKSRKDQIQRLVLSTVVIFLACFLPYHNLLLVRSVWEASCDFAKGVFNAYHFSLLLTSFNCVADPVLYCFVSETTHRDLARLRGACLAFLTCSRTGRAREAYPLGAPEASGKSGAQGEEPELLTKLHPAFQTPNSPGSGGFPTGRLA [V246N] | -1.35 | -0.844 | – | -2.39 | -2.05
MGNITADNSSMSCTIDHTIHQTLAPVVYVTVLVVGFPANCLSLYFGYLQIKARNELGVYLCNLTVADLFYICSLPFWLQYVLQHDNWSHGDLSCQVCGILLYENIYISVGFLCCISVDRYLAVAHPFRFHQFRTLKAAVGVSVVIWAKELLTSIYFLMHEEVIEDENQHRVCFEHYPIQAWQRAINYYRFLVGFLFPICLLLASYQGILRAVRRSHGTQKSRKDQIQRLVLSTVVIFLACFLPYHPLLLVRSVWEASCDFAKGVFNAYHFSLLLTSFNCVADPVLYCFVSETTHRDLARLRGACLAFLTCSRTGRAREAYPLGAPEASGKSGAQGEEPELLTKLHPAFQTPNSPGSGGFPTGRLA [V246P] | -1.21 | -2.17 | -1.73 | -1.31 | -1.86
MGNITADNSSMSCTIDHTIHQTLAPVVYVTVLVVGFPANCLSLYFGYLQIKARNELGVYLCNLTVADLFYICSLPFWLQYVLQHDNWSHGDLSCQVCGILLYENIYISVGFLCCISVDRYLAVAHPFRFHQFRTLKAAVGVSVVIWAKELLTSIYFLMHEEVIEDENQHRVCFEHYPIQAWQRAINYYRFLVGFLFPICLLLASYQGILRAVRRSHGTQKSRKDQIQRLVLSTVVIFLACFLPYHQLLLVRSVWEASCDFAKGVFNAYHFSLLLTSFNCVADPVLYCFVSETTHRDLARLRGACLAFLTCSRTGRAREAYPLGAPEASGKSGAQGEEPELLTKLHPAFQTPNSPGSGGFPTGRLA [V246Q] | -1.28 | -0.876 | -1.23 | -1.14 | -1.9
